# Results as given in the supplement of paper PMC10369915.
# Some of the results follow. Rule as the data show it: active = 3.2 or more and inactive = the rest. The signal is at background level for most entries.
# Assays:
# Assay in all cases: enrichment score (SH2-bound / input frequency) (ratio); bacterial display of known human phosphotyrosine sites (pTyr-Var adds point mutants) read by sequencing; higher = stronger binding; tyrosines were phosphorylated by kinases first
# Settings in all cases: peptide library: pTyr-Var
# SHP2 C-SH2 domain E139D = molecular target: SHP2 C-SH2 domain E139D
# [1] = molecular target: SHP2 C-SH2 domain wild-type
# SHP2 N-SH2 domain L43F = molecular target: SHP2 N-SH2 domain L43F
# SHP2 N-SH2 domain T42A = molecular target: SHP2 N-SH2 domain T42A
# SHP2 N-SH2 domain T52S = molecular target: SHP2 N-SH2 domain T52S
# [2] = molecular target: SHP2 N-SH2 domain wild-type
# 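Also: displayed peptides selected on beads carrying the immobilized SH2 domain, with library peptides lacking any tyrosine serving as negative controls.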
Binder,enrichment score (SHP2 C-SH2 domain E139D),enrichment score [1],enrichment score (SHP2 N-SH2 domain L43F),enrichment score (SHP2 N-SH2 domain T42A),enrichment score (SHP2 N-SH2 domain T52S),enrichment score [2]
ISHVAYRVLGK [TRRAP_Y892],inactive: 0.7,inactive: 0.56,inactive: 0.671,inactive: 0.57,inactive: 0.675,inactive: 0.71
FDSPFYRDSLP [TSC1_Y508],inactive: 0.608,inactive: 0.546,inactive: 0.64,inactive: 0.665,inactive: 0.652,inactive: 0.732
PLDGEYFTLRI [TP53_Y327_Q331R],inactive: 0.781,inactive: 1.13,inactive: 1.17,inactive: 0.802,inactive: 0.681,inactive: 1.24
PRNLIYFGEHP [TRPV6_Y201_C197R],inactive: 0.944,inactive: 0.745,inactive: 0.723,inactive: 0.925,inactive: 0.839,inactive: 0.608
FVTSMYNEILM [TRPV1_Y310],inactive: 1.85,inactive: 1.79,inactive: 1.81,inactive: 3.17,inactive: 1.57,inactive: 1.67
TSPALYRLDLD [TRIL_Y352_A347T],inactive: 1.2,inactive: 0.799,inactive: 0.778,inactive: 0.703,inactive: 0.681,inactive: 0.95
PLDGEYVTLQI [TP53_Y327_F328V],inactive: 0.708,inactive: 0.967,inactive: 1.04,inactive: 0.838,inactive: 0.835,inactive: 0.816
RAMPVYEKAEH [TP63_Y231_K232E],inactive: 0.662,inactive: 0.541,inactive: 0.527,inactive: 0.386,inactive: 0.495,inactive: 0.5
PLDGEYFSLQI [TP53_Y327_T329S],inactive: 1.08,inactive: 0.837,inactive: 0.711,inactive: 0.934,inactive: 0.679,inactive: 0.736
RAMPVYKKAEH [TP63_Y231],inactive: 0.193,inactive: 0.587,inactive: 0.366,inactive: 0.37,inactive: 0.647,inactive: 0.446
PKSLFYLLLKP [TRPC6_Y775_L780P],inactive: 2.68,inactive: 2.75,inactive: 2.37,inactive: 2.52,active: 3.22,inactive: 2.34
PLDAEYFTLQI [TP53_Y327_G325A],inactive: 0.663,inactive: 0.755,inactive: 0.554,inactive: 0.793,inactive: 0.539,inactive: 1.2
DELDKYSEALK [TPM1_Y60],inactive: 0.603,inactive: 0.444,inactive: 0.488,inactive: 0.529,inactive: 0.682,inactive: 0.641
LEDEVYAQKMK [TPM2_Y261],inactive: 0.896,inactive: 1.01,inactive: 0.817,inactive: 0.651,inactive: 0.931,inactive: 0.79
QPTPGYEVGQR [TSC2_Y1788_E1783Q],inactive: 0.537,inactive: 0.469,inactive: 0.608,inactive: 0.388,inactive: 0.7,inactive: 0.689
RQAQAYRGQRV [TSHR_Y706],inactive: 0.232,inactive: 0.252,inactive: 0.245,inactive: 0.197,inactive: 0.171,inactive: 0.373
ISHVAYLVLGK [TRRAP_Y892_R893L],inactive: 3.04,active: 3.33,inactive: 3.14,active: 5.78,inactive: 2.87,inactive: 2.43
FDSPFYQDSLP [TSC1_Y508_R509Q],inactive: 0.781,inactive: 0.777,inactive: 0.965,inactive: 0.76,inactive: 0.784,inactive: 0.853
PVDGEYFTLQI [TP53_Y327_L323V],inactive: 0.614,inactive: 0.99,inactive: 0.836,inactive: 0.742,inactive: 0.522,inactive: 1.16

Binder,enrichment score (SHP2 C-SH2 domain E139D),enrichment score [1],enrichment score (SHP2 N-SH2 domain L43F),enrichment score (SHP2 N-SH2 domain T42A),enrichment score (SHP2 N-SH2 domain T52S),enrichment score [2]
ISSLRYELLEE [TRPC6_Y896],inactive: 1.03,inactive: 0.879,inactive: 0.924,inactive: 0.906,inactive: 0.903,inactive: 1.25
PLDGEYFTPQI [TP53_Y327_L330P],inactive: 0.741,inactive: 0.794,inactive: 0.781,inactive: 0.605,inactive: 0.991,inactive: 0.852
DTQNSYRCATS [TSC1_Y304_G305R],inactive: 0.696,inactive: 0.608,inactive: 0.524,inactive: 0.503,inactive: 0.639,inactive: 0.873
RGGWAYVLHPT [TRMT61A_Y67_V66A],inactive: 1.29,inactive: 1.26,inactive: 1.09,inactive: 0.853,inactive: 1.11,inactive: 1.31
FVSIVYNDSGE [TSC2_Y1650],inactive: 1.4,inactive: 1.32,inactive: 1.41,inactive: 1.29,inactive: 1.94,inactive: 1.56
WNGDKYAATTT [TRIM39_Y439],inactive: 0.859,inactive: 0.599,inactive: 0.556,inactive: 0.644,inactive: 0.779,inactive: 0.721
AQMAMYFWEMG [TRPM4_Y577],active: 3.54,inactive: 2.98,inactive: 3.17,inactive: 2.43,inactive: 2.69,inactive: 3.12
DELDKYSEVLK [TPM1_Y60_A63V],inactive: 0.505,inactive: 0.853,inactive: 0.723,inactive: 0.828,inactive: 0.727,inactive: 0.78
SGLDSYVRSLP [TRAPPC1_Y133_R129G],inactive: 0.784,inactive: 0.523,inactive: 0.598,inactive: 0.537,inactive: 0.587,inactive: 0.637
RLDGEYFTLQI [TP53_Y327_P322R],inactive: 0.809,inactive: 1.05,inactive: 0.718,inactive: 0.693,inactive: 0.743,inactive: 0.887
PLDGEYFTHQI [TP53_Y327_L330H],inactive: 0.766,inactive: 0.827,inactive: 0.765,inactive: 0.707,inactive: 0.672,inactive: 0.974
LSEEKYELKEG [TREM1_Y29_T25S],inactive: 0.901,inactive: 0.911,inactive: 0.752,inactive: 0.686,inactive: 0.693,inactive: 0.944
EPTPGYEVSQR [TSC2_Y1788_G1791S],inactive: 0.543,inactive: 0.615,inactive: 0.529,inactive: 0.408,inactive: 0.445,inactive: 0.689
EPTPGYEVGQR [TSC2_Y1788],inactive: 0.448,inactive: 0.435,inactive: 0.527,inactive: 0.386,inactive: 0.466,inactive: 0.498
ISHVAYCVLGK [TRRAP_Y892_R893C],inactive: 1.4,inactive: 2.04,inactive: 1.48,inactive: 2.89,inactive: 1.48,inactive: 1.81
QPDFLYDHIQP [TRRAP_Y862],inactive: 1.91,inactive: 2.6,inactive: 1.39,inactive: 1.8,inactive: 2.3,inactive: 1.59
NNVEQYQAMVT [TPR_Y965_S960N],inactive: 0.782,inactive: 0.861,inactive: 0.728,inactive: 0.704,inactive: 0.71,inactive: 0.661
PLDGEYFILQI [TP53_Y327_T329I],inactive: 0.941,inactive: 1.34,inactive: 0.876,inactive: 0.792,inactive: 0.711,inactive: 1.61
